Source: PubChem BioAssay AID624417 (National Center for Advancing Translational Sciences (NCATS), 2012)
About 6,400 (1.6%) of roughly 410,000 compounds were called active. The shares of active, inactive and inconclusive entries below differ from those in the screen. Calls come from the whole dose curve; as a rule, active = well fitted inhibition curve with a large enough effect; inconclusive = small, poorly fitted or top-dose-only effect; inactive = no such curve, though single readings can be large or run the other way. Potencies of inconclusive entries are left out as doubtful fits.

Target: Glucagon-like peptide 1 receptor (Homo sapiens) (UniProt P43220)
Experiment: qHTS of GLP-1 Receptor Inverse Agonists (Inhibition Mode); note: nearly all actives have a fitted effect of over 55% in size
Details: HEK293 GLP-1R CRE-luciferase, luminescence, 24 h, GLP-1R form is constitutively active; activity change, negative = inhibition: at 38.3 µM (top of the series) unless noted
How it was run: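 Seeding at 200 cells/uL, 12 h culture, 24 hr compound treatment, then luciferase reagent and a luminescence read; cells are HEK293 stably expressing a constitutively active GLP-1R plus cAMP-responsive luciferase.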
% is set by controls: 0 for no effect and ±100 for the full control effect; potency is the fitted concentration of half-maximal effect; tags give direction and shape of the fitted curve.

Chain of UniProt P43220 (P43220 whole entry, looked up): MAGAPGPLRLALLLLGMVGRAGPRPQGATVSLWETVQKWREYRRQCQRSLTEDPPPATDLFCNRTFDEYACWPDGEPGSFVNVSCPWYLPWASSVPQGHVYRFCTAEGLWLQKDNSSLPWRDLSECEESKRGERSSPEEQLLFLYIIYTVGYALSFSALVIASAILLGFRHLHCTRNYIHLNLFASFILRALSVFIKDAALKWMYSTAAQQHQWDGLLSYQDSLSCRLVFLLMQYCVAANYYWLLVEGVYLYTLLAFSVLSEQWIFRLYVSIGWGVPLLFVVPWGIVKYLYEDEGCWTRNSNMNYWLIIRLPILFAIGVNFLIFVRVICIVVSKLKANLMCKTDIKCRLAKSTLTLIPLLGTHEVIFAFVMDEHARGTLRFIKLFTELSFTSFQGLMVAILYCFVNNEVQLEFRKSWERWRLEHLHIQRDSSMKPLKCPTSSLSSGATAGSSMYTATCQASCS

Row | SMILES | activity change, negative = inhibition | Potency
1 | CC1CCN(C(=O)CN2CCSc3ccc(S(=O)(=O)N(C)C)cc32)CC1 | inactive: 13.5% | 
2 | CCOc1cc(/C=C/C(=O)c2ccc3c(c2)OCCO3)ccc1OCC(=O)N(C)C |  | active: 12.6 µM
3 | COC[C@H]1CCCN1c1ccc2c(c1)O[C@H](COCc1ccccc1)CN([C@H](C)c1ccccc1)S2(=O)=O |  | inconclusive [inhibitor, single point]
4 | CC(=O)c1cccc(NC(=O)c2ccc3c(c2)CCCC3)c1 |  | inconclusive [inhibitor, single point]
5 | Cc1ccc(NC(=O)C(c2ccccc2)c2ccccc2)nc1 |  | inconclusive [inhibitor, single point]
6 | COC(=O)CCC(=O)N1CCCC(N2CCN(c3cccc(C(F)(F)F)c3)CC2)C1 (stereo unspecified) |  | inconclusive [inhibitor, partial curve, poor fit]
7 | COCC(=O)N/N=C/c1c(C)[nH]n(-c2ccccc2)c1=O | inactive: -17% | 
8 | Cc1cccc(C)c1OCC(=O)Nc1cccc(NC(=O)c2ccco2)c1 |  | inconclusive [inhibitor, partial curve, poor fit]
9 | COc1ccc(C(=O)N(Cc2ccco2)Cc2cccs2)c(O)c1 |  | inconclusive [inhibitor, partial curve, poor fit]
10 | Nc1ccccc1SCC(=O)N1CCc2ccccc21 |  | inconclusive [inhibitor, single point]
11 | Oc1c(Br)cc(Br)cc1/C=N/NC(=S)N[C@H]1CC2C=CC1C2 (stereo partly specified) |  | active: 3.55 µM
12 | OCCn1c(-c2ccc(F)cc2)csc1=Nc1ccccc1 |  | inconclusive [inhibitor, partial curve, poor fit]
13 | COc1cc(OC)cc(C(=O)Nc2nc(CC(=O)NCc3ccccc3OC)cs2)c1 |  | active: 10 µM
14 | CC(=O)Oc1ccc(Cn2c(C)c(C(=O)NCc3ccc4c(c3)OCCO4)sc2=O)cc1 | inactive: 17.2% | 
15 | COc1ccc(N(C(=O)c2ccncc2)S(=O)(=O)c2ccc(Cl)cc2)cc1 |  | inconclusive [inhibitor, partial curve, poor fit]
16 | CCCN(CC1CC1)C(=S)Nc1ccc(C(C)=O)cc1 | inactive: -16% | 
17 | O=C(OC12CC3CC(CC(C3)C1)C2)c1ccc(NCc2cc(O)ccc2O)cc1 |  | inconclusive [inhibitor, single point]
18 | O=S(=O)(Nc1nnc(C(F)(F)F)s1)c1ccc(Cl)cc1 |  | inconclusive [inhibitor, partial curve, poor fit]
19 | COc1nc(N(C)C)nc(-n2nnc(C(C)=O)c2C)n1 | inactive: 25.9% | 
20 | Cc1cccc(C(=O)Nc2nnc(S(=O)(=O)N3CCC(C)CC3)s2)c1 |  | inconclusive [inhibitor, partial curve, poor fit]
21 | O=C(OCCOc1cccc(Cl)c1)c1ccc(F)c(S(=O)(=O)N2CCOCC2)c1 |  | inconclusive [inhibitor, partial curve, poor fit]

Row | SMILES | activity change, negative = inhibition | Potency
22 | COc1cccc(C(C(=O)NC2CCCC2)N(C(=O)c2ccco2)C2CC2)c1OC (stereo unspecified) |  | inconclusive [inhibitor, single point]
23 | COc1ccccc1NS(=O)(=O)c1cccc(NC(=O)Nc2cccc(Cl)c2)c1 |  | inconclusive [inhibitor, full curve, poor fit]
24 | CC(=O)N1CCc2cc(S(=O)(=O)C(C)CC(=O)NCc3ccc(C)o3)ccc21 (stereo unspecified) | inactive: 11.5% | 
25 | Cc1ccccc1NC(=S)N(CCc1c(C)[nH]c2ccc(F)cc12)Cc1ccncc1 |  | inconclusive [inhibitor, full curve, poor fit]
26 | COC(CN(C)C(=O)c1cn(C)c2ccc(S(=O)(=O)N(C)C3CCCCC3)cc2c1=O)OC | inactive: 11.5% | 
27 | C=CCNC(=O)COC(=O)c1oc2ccccc2c1CSC1CCCCC1 |  | inconclusive [inhibitor, partial curve, poor fit]
28 | CN(CC(=O)NCc1ccccc1)Cc1ccc(Cl)cc1 |  | inconclusive [inhibitor, single point]
29 | COc1cccc2c1OC[C@@H](CO)[C@H]2N(C)C(=O)Nc1ccc(Cl)cc1Cl |  | inconclusive [inhibitor, single point]
30 | COc1ccccc1N1CCN(CC(=O)c2c[nH]c3ccccc23)CC1 |  | inconclusive [inhibitor, single point]
31 | COc1ccc(C(=O)Nc2cccc3cccnc23)cc1OC | inactive: 99.1% | 
32 | O=C(Nc1cc(S(=O)(=O)N2CCOCC2)ccc1N1CCOCC1)c1ccc([N+](=O)[O-])s1 | inactive: 12.2% | 
33 | CCOC(=O)[C@]12CCCC=C1N(Cc1ccccc1)C(=O)[C@H](CC(=O)NCc1cccc(C(F)(F)F)c1)C2 |  | inconclusive [inhibitor, single point]
34 | COc1ccc(N(Cc2cc3ccccc3[nH]c2=O)S(=O)(=O)c2ccc(OC)cc2)cc1 |  | inconclusive [inhibitor, partial curve, poor fit]
35 | Cc1nc2c(OCc3ccc(C(F)(F)F)cc3)cccn2c1N(C)Cc1cccs1 |  | inconclusive [inhibitor, single point]
36 | O=C(NCc1nc2ccccc2[nH]1)C1=C[C@H](c2ccc(C(F)(F)F)cc2)C[C@H](OCc2ccc(CO)cc2)O1 |  | inconclusive [inhibitor, partial curve, poor fit]
37 | O=C(c1ccc(Cl)cc1)C1CCN(Cc2ccccc2)CC1 |  | inconclusive [inhibitor, partial curve, poor fit]
38 | CCCOc1ccc(C(=O)Nc2cc3nn(-c4ccc(CC)cc4)nc3cc2C)cc1 | inactive: -0.981% | 
39 | O=C(CSc1nnc(-c2ccccc2)c(-c2ccccc2)n1)Nc1ccccc1Cl |  | inconclusive [inhibitor, single point]
40 | CCN1C/C(=C/c2cccs2)c2nc3ccccc3c(C(=O)O)c2C1 | inactive: 7.41% | 
41 | Cc1ccc(-c2noc(CCC(=O)NCCCN3CCN(c4cccc(Cl)c4)CC3)n2)cc1 |  | inconclusive [inhibitor, partial curve, poor fit]
